# Experimental data reported in PubChem BioAssay AID651820 (National Center for Advancing Translational Sciences (NCATS), 2012).
# About 12,000 (3.5%) of roughly 340,000 compounds were called active. Inconclusive means that the source gave no clear call. Such entries were picked first, then a sample of the others. Calls come from the whole dose curve; as a rule, active = well fitted inhibition curve with a large enough effect; inconclusive = small, poorly fitted or top-dose-only effect, or another doubt; inactive = no such curve, though single readings can be large or run the other way. No potency is given beside an inconclusive call; the fits are too rough.
# Assay: qHTS Assay for Inhibitors of Hepatitis C Virus (HCV)
# Settings: Huh7.5.1 HCVcc-Cre (HCVcc is cell-culture hepatitis C virus) infection, luciferase reporter, 44 h; activity change, negative = inhibition: at 41.8 µM (top of the series)
# Procedure, shortened: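 Cells seeded at 1,000/well and cultured 4 h, then compounds added followed by HCVcc-Cre virus (~0.5 moi). After 44 h further culture, luciferase substrate was added, plates held 15 min at room temperature, and luminescence read for 15 sec.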
# % is set by controls: 0 for no effect and ±100 for the full control effect; potency is the fitted concentration of half-maximal effect; tags give direction and shape of the fitted curve.
SMILES,Potency,"activity change, negative = inhibition"
COc1ccccc1-c1coc2cc(OC(=O)N3CCOCC3)ccc2c1=O,inactive,–
COc1cc(OC)cc(C(=O)N2CCC(N3CCCCCC3)CC2)c1,inactive,–
Fc1ccccc1CSc1ncnc2c1ncn2C1CCCCO1 (configuration not stated),–,inconclusive: -52.7% [inhibitor]
O=C(CSc1nnc(-c2ccncc2)n1-c1ccccc1)NCC1CCCO1 (configuration not stated),inactive,–
N#Cc1ccc(OCCN2CCc3ccccc3C2)cc1,"inconclusive [inhibitor, single point]",–
COc1ccc(-c2csc(NC(=O)c3c(C)noc3C)n2)cc1,"inconclusive [inhibitor, partial curve]",–
CN(C)S(=O)(=O)c1cccc(-c2cn3cc(Cl)ccc3n2)c1,"inconclusive [inhibitor, full curve, poor fit]",–
COc1ccc(-c2cc(C(=O)OCC(=O)c3c(N)n(C)c(=O)n(C)c3=O)c3ccccc3n2)cc1,"inconclusive [inhibitor, full curve]",–
O=C1CCCc2nc(N3CCN(Cc4ccccc4)CC3)ncc21,"inconclusive [inhibitor, partial curve]",–
CC(=O)N[C@@H](C)c1nc2ccccc2n1CCCN1CCN(c2nc(-c3ccc(C)cc3)cs2)CC1,active: 3.55 µM,–
Cc1ccc(/C=C2\C(=O)Nc3ccccc32)o1,"inconclusive [inhibitor, partial curve]",–
O=C(/C=C/c1cccc([N+](=O)[O-])c1)c1cccs1,"inconclusive [inhibitor, single point]",–
c1ccc2c(c1)Nc1ccncc1S2,"inconclusive [inhibitor, single point]",–
O=C1c2ccccc2C2=Nc3ccccc3SC(c3ccccc3F)C12 (configuration not stated),active: 5.01 µM,–
CCC1=C(OC(=O)N(CC)CC)N2C(=O)OC(=NCC3CC3)[C@]2(Cc2ccccc2)[C@H]2C1=CC[C@H]1C(=O)NC(=O)[C@H]12,inactive,–
O=C(COC(=O)Cn1[nH]c(=O)c2ccccc2c1=O)NNC(=O)c1ccc(Br)cc1,inactive,–
C=CCn1cccc(C(=O)Nc2cc(OC)c(OC)c(OC)c2)c1=O,"inconclusive [inhibitor, partial curve]",–
COCCNC(=O)Cn1cnc2c(cnn2-c2ccc(OC)cc2)c1=O,inactive,–
COc1ccc(COC(=O)c2c(C)nn(-c3ccccc3)c2Cl)cc1,"inconclusive [inhibitor, single point]",–
COc1ccc(-c2cc(-c3ccccc3)c(C#N)c(SCC(=O)Nc3ncc(C)s3)n2)cc1,active: 4.47 µM,–
O=C(NC(=O)N1CCCc2ccccc21)c1ccccc1,inactive,–
O=S(=O)(Cc1ccccc1Cl)N1CCN(Cc2ccc3c(c2)OCO3)CC1,"inconclusive [inhibitor, full curve, poor fit]",–
COc1ccc(Cl)cc1NC(=O)C(C)N1CCN(C/C=C/c2ccccc2)CC1 (configuration not stated),"inconclusive [inhibitor, full curve, poor fit]",–
COc1ccc(OC)c(C2C(C(=O)Nc3ccc(F)cc3)=C(C)Nc3nc(CCCO)nn32)c1 (configuration not stated),inactive,–

SMILES,Potency,"activity change, negative = inhibition"
N/C(=N\OC(=O)Oc1ccccc1)c1cccc([N+](=O)[O-])c1,inactive,–
Cc1cccc2nc(CSc3nc4[nH]ncc4c(=O)n3-c3cccc(Cl)c3)cc(=O)n12,"inconclusive [inhibitor, single point]",–
Cc1ccc(C)c2[nH]c(=O)c(CCNC(=O)c3ccc(S(=O)(=O)N(C)C)cc3)cc12,"inconclusive [inhibitor, partial curve]",–
c1ccc(-c2cn3c(n2)CCC3)cc1,inactive,–
O=C(NC1CCCCCCC1)c1ccc(F)c(S(=O)(=O)N2CCOCC2)c1,"inconclusive [inhibitor, single point]",–
N=c1c(C(=O)NCC2CCCO2)cc2c(=O)n3ccccc3nc2n1C1CCCCC1 (configuration not stated),inactive,–
CC(NC(=O)c1ccco1)C(=O)O (configuration not stated),inactive,–
Cc1ccc(C(=O)N2CCCC(N3CCN(c4cccc(C(F)(F)F)c4)CC3)C2)s1 (configuration not stated),"inconclusive [inhibitor, single point]",–
CCCC(=O)Nc1ccc(NC(=O)C2CC2)cn1,inactive,–
Nc1ccc2c(c1Br)Cc1ccccc1-2,"inconclusive [inhibitor, partial curve, poor fit]",–
CNC(=O)c1c2c(nc3ccc(Br)cc13)CCCC2,active: 25.1 µM,–
COc1cc(/C=N/NC(=S)NC2CC3CCC2C3)ccc1O (configuration not stated),"inconclusive [inhibitor, single point]",–
COc1ccccc1CN1CC(C(=O)NCc2cnn(C)c2)CCC1=O (configuration not stated),inactive,–
CC(C)[C@H](NC(=O)OC(C)(C)C)C(=O)N1CCC(C(=O)N[C@@H](C)C(=O)Nc2ccc(F)cc2)CC1,inactive,–
Cn1c(=O)c(=O)n(C)c2cc([N+](=O)[O-])c([N+](=O)[O-])cc21,"inconclusive [inhibitor, single point]",–
Cc1ccc(OCC(=O)Nc2ccc3c(c2)OCO3)c(C)c1,"inconclusive [inhibitor, single point]",–
CC(=O)N1CCc2cc(NC(=O)c3ccc(C)cc3)ccc21,inactive,–
O=C(COC(=O)C1CC2C=CC1C2)Nc1ccccc1F (configuration not stated),inactive,–
NC1CCCCC1N=Cc1c(O)n(Cc2ccc(F)cc2)c(=O)[nH]c1=O (configuration not stated),"inconclusive [inhibitor, single point]",–
O=C(C1CCC(CNS(=O)(=O)c2cccc3nsnc23)CC1)N1CC=C(c2ccccc2)CC1 (configuration not stated),"inconclusive [inhibitor, single point]",–
C=CCn1c(SCc2ccccc2Cl)nnc1-c1sc2nc(C)cc(C)c2c1N,"inconclusive [inhibitor, single point]",–
COCCNC(=S)N(CCc1c(C)[nH]c2ccc(OC)cc12)Cc1ccco1,"inconclusive [inhibitor, single point]",–
CCN1CCN(c2cc(C)c3cc(NC(=O)CCC(=O)Nc4ccc(OC)cc4OC)ccc3n2)CC1,"inconclusive [inhibitor, single point]",–
O[C@@H]1CN(Cc2ccc(-n3cccn3)cc2)CC[C@H]1N1CCN(c2ccccc2F)CC1,active: 8.91 µM,–

SMILES,Potency,"activity change, negative = inhibition"
COc1cc(OC)c(OC)cc1CNC(=O)c1cc(S(=O)(=O)N(C)c2ccccc2OC)ccc1C,"inconclusive [inhibitor, partial curve]",–
CCn1c(COc2cccc(OC)c2)nnc1SCC(=O)Nc1ccccc1C(=O)OC,"inconclusive [inhibitor, partial curve]",–
O=C(NC(=S)Nc1ccccc1Br)C1CCC1,"inconclusive [inhibitor, single point]",–
N=c1c2c(n(Cc3cccc(Cl)c3)c3c1CCC3)CCCC2,active: 25.1 µM,–
Cc1cccn2c(=O)c3cc(C(=O)NC4CCCCC4)c(=N)n(Cc4ccccc4)c3nc12,inactive,–
Cc1cc(C)cc(NC(=O)CCC(=O)N2CCSc3ccccc32)c1,"inconclusive [inhibitor, single point]",–
CC(N=C1NS(=O)(=O)c2ccccc21)C(=O)NCCCc1ccccc1 (configuration not stated),"inconclusive [inhibitor, single point]",–
COc1cc(NC(=O)CCC(=O)N2CCN(S(=O)(=O)c3ccc(C)cc3)CC2)cc(OC)c1,"inconclusive [inhibitor, single point]",–
CN(C)C(=O)Oc1cccc(OCc2n(C)c3ccccc3[n+]2C)c1,inactive,–
COc1ccc(OC)c(S(=O)(=O)Nc2ccccc2F)c1,inactive,–
CSc1nnc(SCC(=O)NC(=O)c2ccccc2)s1,"inconclusive [inhibitor, single point]",–
Cc1ccccc1NC(=O)CSc1nc2cc3c(cc2cc1C)CCC3,"inconclusive [inhibitor, single point]",–
COc1ccc(Nc2ncnc3c2cnn3-c2ccccc2)cc1OC,"inconclusive [inhibitor, single point]",–
O=C(c1ccc2nc3ccccc3c(=O)n2c1)N1CCN(Cc2ccc3c(c2)OCO3)CC1,"inconclusive [inhibitor, single point]",–
CCOc1ccc(S(=O)(=O)N(C)c2ccc(OCC(=O)NCCc3ccc(OC)cc3)cc2)cc1,inactive,–
CCc1nnc(NC(=O)c2ncc(Cl)c(Cl)c2Cl)s1,"inconclusive [inhibitor, single point]",–
O=C1C2C3C=CC(C3)C2C(=O)N1c1ccc(-c2nc3ccccc3o2)cc1 (configuration not stated),inactive,–
Cc1nc2c(c(C)nn2-c2ccccc2)c(C)c1CCC(=O)NCCCOC(C)C,"inconclusive [inhibitor, single point]",–
O=C(Nc1ccc(-c2nc3cc(NC(=O)c4cccs4)ccc3o2)cc1)c1cccs1,active: 11.2 µM,–
COc1ccc(N2CC(O)=C(c3nc(-c4ccc(F)cc4)cs3)C2=N)cc1Cl,"inconclusive [inhibitor, single point]",–
Cc1cc2cc(C)c3nnc(SCc4ccccn4)n3c2cc1C,"inconclusive [inhibitor, single point]",–
CC(C)C[C@H]1CN=C(Nc2ccccc2)N1CCc1cccc(F)c1,"inconclusive [inhibitor, single point]",–
CN(C)C(=S)Oc1ccccc1-c1ccccc1OC(=S)N(C)C,"inconclusive [inhibitor, single point]",–
CCN(CC)CCCNC(=O)c1[nH]c2ccccc2c1Sc1ccc(Cl)cc1,"inconclusive [inhibitor, partial curve, poor fit]",–
